{"source": "PubChem BioAssay AID1347070", "about": "(National Center for Advancing Translational Sciences (NCATS), 2019)", "note": "Out of some 94,000 compounds screened, about 20 (0.02%) were called active. The shares of active, inactive and inconclusive entries below differ from those in the screen. Calls follow the shape of the dose curve; as a rule, active = well fitted activation curve with a large enough effect; inconclusive = small, poorly fitted or top-dose-only effect; inactive = flat fitted curve, though single readings scatter. No potency is given beside an inconclusive call; the fits are too rough. Potency is read from the fitted curve at half-maximal effect; tags tell the direction and shape of the fitted curve."}
{"assay": "qHTS of alpha-syn Inhibitors: NCGC Sytravon Library Screen; as to growth rescue (activation): 0% is about no effect", "settings": "S. cerevisiae alpha-synuclein toxicity rescue, BacTiter-Glo growth, 24 h; growth rescue (activation): at 46.1 µM (top of the series)", "from_the_text": "The goal of this project is to identify new chemical probes capable of reversing the toxicity associated with the Parkinson disease-related protein, alpha-synuclein. Compounds will be selected on their ability to restore growth in yeast cells expressing toxic levels of alpha-synuclein. These compounds will provide a complementary approach to deciphering the tangled mechanisms of toxicity and protection that we have uncovered through genome-wide genetic screens and are beginning to uncover in a large-scale proteomics analysis with mass spectroscopy. To this end, a miniaturized assay was developed to be screened against the Molecular Libraries Small Molecule Repository (MLSMR) to discover alpha-synuclein inhibitors. […] The phenotype of interest will be that of an Activator and this screen is run against the NCGC Sytravon Library collection. NIH Chemical Genomics Center [NCGC] NIH Molecular Libraries Probe Centers Network [MLPCN] MLPCN Grant: NS060957 Assay Submitter (PI): Susan Lindquist, Whitehead Institute/MIT\nDispense 2.5 microL yeast galactose medium per 1536-well plate, pin compound, dispense 2.5 microL alpha-synuclein expressing yeast in galactose medium at OD600=0.02 (pregrown in raffinose medium to mid-log phase) per well, incubate for 24 hr at 30 deg C, and cell growth will be measured using 5 microL of Bactiter/Glo reagent to entire plate and read using Luminescence Protocol in ViewLux."}
{"smiles": "O=c1c2c3c(sc2nnn1Cc1ccc(Br)cc1)CCCC3", "Potency": "inconclusive [activator, partial curve]"}
{"smiles": "Cc1ccc(Cl)cc1NC(=O)c1ccc(-c2nc(CSc3ccccc3)c(C)o2)cc1", "Potency": "inconclusive [activator, single point]"}
{"smiles": "COc1ccc(N2CCN(c3ccc(-c4nc(-c5ccccc5)no4)cc3[N+](=O)[O-])CC2)cc1", "Potency": "inactive"}
{"smiles": "Cc1ccccc1CNC(=O)c1cccc(NC(=O)N2CCSc3ncccc32)c1", "Potency": "inactive"}
{"smiles": "Oc1c(C(c2ccccn2)N2CCC(Cc3ccccc3)CC2)cc(Cl)c2cccnc12", "note": "(configuration not stated)", "growth rescue (activation)": "inconclusive: 108% [activator]"}
{"smiles": "O=C(Nc1ccc(C(F)(F)F)cc1)c1cc(S(=O)(=O)NC2CCCCC2)ccc1F", "Potency": "inconclusive [activator, single point]"}
{"smiles": "Fc1ccc(CSc2nc(NCc3ccccc3)c3ccccc3n2)cc1", "Potency": "inconclusive [activator, single point]"}
{"smiles": "CCN1C(=O)C(CC(=O)Nc2ccc(OC)cc2)N(CCc2ccc(OC)cc2)C1=S", "note": "(configuration not stated)", "growth rescue (activation)": "inconclusive: 40.7% [activator]"}
{"smiles": "CCOc1cccc(NC(=O)C2CC(=O)N(CC)C(=Nc3ccc(F)cc3)S2)c1", "note": "(configuration not stated)", "Potency": "inconclusive [activator, single point]"}
{"smiles": "O=C(/C=C/c1ccc(Cl)cc1Cl)N1CCN(c2ccccc2[N+](=O)[O-])CC1", "growth rescue (activation)": "inconclusive: 36.2% [activator]"}
{"smiles": "O=[N+]([O-])c1ccc(Cl)c(NC(=S)N2CCCC2)c1", "growth rescue (activation)": "inconclusive: 52.2% [activator]"}
{"smiles": "COC(=O)CN1C(=O)C(C)(C)c2cc(S(=O)(=O)Nc3ccc(C(C)C)cc3)ccc21", "Potency": "inactive"}
{"smiles": "CCOc1ccccc1N(CC)C(=O)c1cc2ccc3cccnc3c2[nH]1", "Potency": "inconclusive [activator, single point]"}
{"smiles": "CCCCN(C)S(=O)(=O)c1cc(-c2cc(C)no2)ccc1C", "Potency": "inconclusive [activator, partial curve]"}
{"smiles": "CCc1ccc2occ(CC(=O)Nc3sc4c(c3C(=O)OC)CCC4)c2c1", "Potency": "inconclusive [activator, single point]"}
{"smiles": "CCOC(=O)C1CCCN(C(=O)c2[nH]c3ccccc3c2Sc2ccc(Cl)cc2)C1", "note": "(configuration not stated)", "Potency": "inconclusive [activator, single point]"}
{"smiles": "CCOCc1cc(CN2CCN(c3cccc(Cl)c3)CC2)c(O)c2ncccc12", "Potency": "inconclusive [activator, single point]"}
{"smiles": "COc1ccc(CCNC(=O)CSc2nc(-c3ccc(F)cc3)cc(C(F)(F)F)n2)cc1OC", "Potency": "inactive"}
{"smiles": "O=C(COc1ccccc1)N(Cc1cccnc1)c1nc2ccc(F)cc2s1", "Potency": "inconclusive [activator, single point]"}
{"smiles": "O=C(NCCS(=O)(=O)N1CCN(c2ccccc2F)CC1)C(c1ccccc1)c1ccccc1", "Potency": "inactive"}
{"smiles": "CCOC(=O)C1CCCN(C(=O)c2cccc(NC(=O)c3nsc4ccccc34)c2)C1", "note": "(configuration not stated)", "Potency": "inactive"}
{"smiles": "Cc1ccc(-c2cc(-c3ccc4c(c3)NC(=O)CO4)nc3c2COc2ccccc2-3)cc1", "Potency": "inactive"}
{"smiles": "COc1ccc(CCNCc2c(C(=O)O)c(C)n(Cc3c(F)cccc3Cl)c2C)cc1OC", "Potency": "inactive"}
{"smiles": "O=S(=O)(Nc1ccc2nc(-c3ccc(F)cc3)oc2c1)c1ccccc1", "Potency": "active: 20 µM"}
{"smiles": "Cc1ccc(C(=O)N[C@H](C(=O)N2CCN(c3ncccn3)CC2)C(C)C)cc1", "Potency": "inactive"}
{"smiles": "CCOc1ccc(N(C(=O)CC(C)C)S(=O)(=O)c2ccc3c(c2)oc(=O)n3C)cc1", "Potency": "inactive"}
{"smiles": "COc1ccc(Nc2ncc(C(=O)N3CCN(c4cccc(Cl)c4)CC3)c3ccccc23)cc1", "Potency": "inconclusive [activator, single point]"}
{"smiles": "Cc1cccc(NC(=O)CSc2nc(-c3ccccc3)cn2-c2ccccc2)c1C", "growth rescue (activation)": "inconclusive: 34.3% [activator]"}
{"smiles": "Cc1ccc(C(=O)CC2(O)C(=O)N(CCc3ccccc3)c3ccc(Cl)cc32)cc1", "note": "(configuration not stated)", "Potency": "inconclusive [activator, single point]"}
{"smiles": "CC(C)c1cnc2c(c1SCC(=O)Nc1ccccc1C(F)(F)F)c(=O)n(C)c(=O)n2C", "Potency": "inactive"}
{"smiles": "O=C(Cn1cccc1)N1CCN(c2ccc(F)cc2)CC1", "growth rescue (activation)": "inconclusive: 38.7% [activator]"}
{"smiles": "Cc1noc(Cn2c(=O)c3ccccc3n(CC(=O)Nc3cccc(Cl)c3C)c2=O)n1", "Potency": "inactive"}
{"smiles": "COc1ccccc1NC(=O)c1c(NCc2ccc(C)o2)sc2c1CCC(C)C2", "note": "(configuration not stated)", "Potency": "inactive"}
{"smiles": "O=C(NCc1cccc(Cl)c1)c1ccc2c(Cl)c3c(nc2c1)CCCC3", "Potency": "inconclusive [activator, single point]"}
{"smiles": "COc1ccc(-n2c(SCc3nc(-c4ccc(Cl)cc4)no3)nnc2-c2ccncc2)cc1", "Potency": "inconclusive [activator, single point]"}
{"smiles": "N#Cc1ccc(OCC(=O)Nc2nc(-c3ccccn3)cs2)cc1", "growth rescue (activation)": "inconclusive: 847% [activator]"}
{"smiles": "O=c1c2c3c(sc2nnn1Cc1ccc(F)cc1)CCCC3", "Potency": "inconclusive [activator, partial curve]"}
{"smiles": "O=C(CCSCc1cccc(Cl)c1)NCc1ccccc1Cl", "Potency": "inconclusive [activator, partial curve]"}
{"smiles": "COCCNc1ccc(-c2nc(-c3ccncc3)no2)cc1[N+](=O)[O-]", "Potency": "inactive"}
{"smiles": "CC1CCN(C(=O)CSc2c3c(nc4ccc(Cl)cc24)CCCC3)CC1", "Potency": "inconclusive [activator, single point]"}
{"smiles": "Cc1cc(C)n(-c2nnc(Nc3ccc(C(C)C)cc3)c3ccccc23)n1", "Potency": "inconclusive [activator, single point]"}
{"smiles": "COc1ccccc1NC(=O)CSc1nnc(-c2nonc2NC(C)=O)n1-c1ccccc1", "Potency": "inactive"}
{"smiles": "CC(NC(=O)C1CCN(C(=O)N2CCOc3ccc(Cl)cc32)CC1)c1ccccc1", "note": "(configuration not stated)", "Potency": "inconclusive [activator, single point]"}
{"smiles": "COc1ccc(-c2onc(C)c2C)cc1S(=O)(=O)N(C)Cc1ccccc1", "Potency": "inconclusive [activator, single point]"}
{"smiles": "Cc1cccc(N2CCN(C(=O)C3CCN(c4ncnc5c4nc4n5CCCCC4)CC3)CC2C)c1", "note": "(configuration not stated)", "Potency": "inconclusive [activator, single point]"}
{"smiles": "CC1=C(C(=O)N2CCN(c3ccccc3)CC2)C2(CCCCC2)OC1=O", "Potency": "inactive"}
{"smiles": "O=C(CSCc1cnn(-c2ccccc2)c1-n1cccc1)NCc1cccc(Cl)c1", "Potency": "inactive"}
{"smiles": "CCOc1ccc(NC(=O)c2cc(S(=O)(=O)NC3CCCCCC3)ccc2F)cc1", "Potency": "inconclusive [activator, single point]"}
{"smiles": "Cc1onc(-c2ccccc2)c1C(=O)NC(=S)NNC(=O)c1ccccc1O", "growth rescue (activation)": "inconclusive: 78.1% [activator]"}
{"smiles": "CCc1nn2c(=O)c(S(=O)(=O)Nc3ccc(Cl)cc3)c(C)nc2s1", "Potency": "inconclusive [activator, single point]"}
{"smiles": "COc1cc([N+](=O)[O-])cc(/C=N\\NC(=O)C2COc3ccccc3O2)c1O", "note": "(configuration not stated)", "growth rescue (activation)": "inconclusive: 94.9% [activator]"}
{"smiles": "Cc1ccc(C)c(N2CCN(C(=O)c3cc4c(=O)oc5ccccc5c4s3)CC2)c1", "Potency": "inconclusive [activator, single point]"}
{"smiles": "COc1ccc(CN(C)C(=O)c2ccc(OCC(=O)Nc3cccc(C(F)(F)F)c3)c(OC)c2)cc1", "growth rescue (activation)": "inconclusive: 31.5% [activator]"}
{"smiles": "CCOc1ccc(S(=O)(=O)NCCc2c(C)[nH]c3c(Cl)cccc23)cc1C", "Potency": "inconclusive [activator, single point]"}
{"smiles": "OCCC#Cc1ccc(CN2CCN(Cc3ccsc3)C(CCO)C2)cc1", "note": "(configuration not stated)", "Potency": "inactive"}
{"smiles": "CCc1cccc(-n2c(=O)c3cccnc3n2CC(=O)NCc2ccc(C)cc2)c1", "Potency": "inactive"}
{"smiles": "Nc1c(C(=O)Nc2ccccc2Cl)nnn1Cc1cccc(Cl)c1", "Potency": "inactive"}
{"smiles": "Cc1ccc(NCc2nc3ccccc3n2CCOc2ccccc2C)cc1", "Potency": "inconclusive [activator, single point]"}
{"smiles": "CCCN(C(=O)Cn1c(=O)oc2cc(Cl)ccc21)c1ccc(C(C)C)cc1", "Potency": "inactive"}
{"smiles": "Cc1c(NC(=O)c2cc3ccccc3o2)cccc1-c1nc2ccccc2o1", "Potency": "inactive"}
{"smiles": "CCOc1ccccc1CNC(=O)Cn1nc(C)c2nn(-c3ccc(Cl)cc3)c(C)c2c1=O", "Potency": "inconclusive [activator, single point]"}
{"smiles": "CN(C)c1ccc(C2Nc3ccccc3C(=O)N2NS(=O)(=O)c2ccccc2)cc1", "note": "(configuration not stated)", "Potency": "inactive"}
{"smiles": "COc1ccc2[nH]cc(CCNC(=O)c3cnn(-c4ccccc4Cl)c3C3CCN(C(=O)OC(C)(C)C)CC3)c2c1", "Potency": "inactive"}
{"smiles": "COc1cc2ccnc(C=O)c2cc1OC", "growth rescue (activation)": "inconclusive: 133% [activator]"}
{"smiles": "Cc1cc(C)cc(NC(=O)c2ncn(-c3ccccc3)n2)c1", "Potency": "inactive"}
{"smiles": "O=C1c2[nH]nc(-c3ccccc3O)c2C(c2ccc(Cl)cc2)N1CCc1ccccc1", "note": "(configuration not stated)", "Potency": "inconclusive [activator, single point]"}
{"smiles": "CC(C)CCn1c(=O)c2sccc2n2c(CCCC(=O)NC(C)c3ccccc3)nnc12", "note": "(configuration not stated)", "Potency": "inactive"}
{"smiles": "Cc1cc(-c2ccc(S(=O)(=O)Nc3cccc(Cl)c3C)cc2)on1", "Potency": "inactive"}
{"smiles": "COc1ccc(C(=O)N2CCN(c3nc4c(C)c(Cl)ccc4s3)CC2)c(OC)c1", "Potency": "active: 15.8 µM"}
{"smiles": "Cc1ccc2occ(CC(=O)N3CCN(c4cccc(Cl)c4)CC3)c2c1", "Potency": "inconclusive [activator, single point]"}
{"smiles": "CCN(CC)CCNC(=O)c1cc2c(=O)oc3ccc(C)cc3c2s1", "Potency": "inconclusive [activator, single point]"}
{"smiles": "COc1ccccc1CNC(=O)c1cc2ccc3ccc(C)[nH]c3c2n1", "Potency": "inactive"}
